The results in this text go back to PubChem BioAssay AID488969 (Vanderbilt High Throughput Screening Facility, 2010).

Molecules are shown by their SMILES. The full ranking holds about 110,000 compounds; the median of “z-score” is about -0.1, and the highest 2% start at about 2. This is one part of the list.

In the assay the target is Metabotropic glutamate receptor 8 (Rattus norvegicus) (UniProt P70579). The assay is described as follows: mGluR8 Gi/Go-coupled signaling modulation – cell-based, rat, thallium flux, HTS, primary screen (AID 488969). As to conditions: HEK293 rat mGluR8, GIRK (G protein-gated inwardly rectifying potassium channel) thallium flux, FluoZin2; at 10 µM; stronger effect = higher value; submaximal glutamate (EC20) added with thallium.
Sequence of UniProt P70579 (P70579 whole entry, looked up): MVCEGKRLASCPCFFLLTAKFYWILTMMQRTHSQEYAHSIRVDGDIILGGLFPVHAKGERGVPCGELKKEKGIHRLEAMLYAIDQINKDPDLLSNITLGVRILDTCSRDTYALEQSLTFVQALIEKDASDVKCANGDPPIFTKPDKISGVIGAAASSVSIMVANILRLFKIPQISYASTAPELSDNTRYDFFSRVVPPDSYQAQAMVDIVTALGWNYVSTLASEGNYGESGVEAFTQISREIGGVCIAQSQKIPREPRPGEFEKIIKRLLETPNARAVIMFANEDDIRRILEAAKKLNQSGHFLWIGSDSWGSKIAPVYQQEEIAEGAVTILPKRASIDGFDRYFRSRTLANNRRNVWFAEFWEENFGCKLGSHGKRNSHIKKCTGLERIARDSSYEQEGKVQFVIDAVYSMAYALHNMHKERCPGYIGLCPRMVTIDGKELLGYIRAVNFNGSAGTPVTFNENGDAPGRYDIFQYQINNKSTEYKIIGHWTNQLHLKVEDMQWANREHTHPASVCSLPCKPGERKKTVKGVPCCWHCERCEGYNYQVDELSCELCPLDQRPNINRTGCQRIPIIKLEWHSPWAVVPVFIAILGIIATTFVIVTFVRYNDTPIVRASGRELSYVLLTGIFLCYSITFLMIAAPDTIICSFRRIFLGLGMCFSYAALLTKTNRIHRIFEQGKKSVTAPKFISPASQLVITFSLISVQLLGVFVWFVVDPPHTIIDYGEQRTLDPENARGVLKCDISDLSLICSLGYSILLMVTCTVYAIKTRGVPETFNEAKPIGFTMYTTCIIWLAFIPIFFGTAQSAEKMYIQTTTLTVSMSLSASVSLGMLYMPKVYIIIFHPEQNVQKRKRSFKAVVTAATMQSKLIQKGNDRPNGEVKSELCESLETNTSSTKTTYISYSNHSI
In turn, `COc1ccccc1NC(=O)C1=C(C)Nc2nnnn2C1c1cccc(C)c1` (centres undefined) showed a z-score of -0.502.

For `Cc1nn(CCOc2ccccc2)c(=O)n1-c1ccccc1F`, the z-score was 0.112.

As for `COc1ccccc1NS(=O)(=O)c1ccc2c(c1)n(C)c(=O)n2C`, the z-score was -0.217.

`CCOC(=O)Cn1nc(-c2ccc(F)cc2)oc1=O` had a z-score of -0.119.

The compound `Cc1oc(=O)c(NC(=O)c2cccc(Cl)c2)cc1C(=O)c1ccccc1` yielded a z-score of 0.0257.

As to `COc1ccc(CNC(=O)C(C)N=C2NS(=O)(=O)c3ccccc32)cc1OC` (centres undefined), the z-score is -0.127.

For `COc1cc2c(-c3ccccc3O)nc3c(c(C)nn3-c3ccccc3)c2cc1OC`, the z-score is -0.0428.

The compound `Cc1cc(N2CCOCC2)nc(NCc2ccccc2)n1` gave a z-score of -0.0745.

In turn, `O=C(Nc1nnc(CSCc2ccc(F)cc2)s1)c1cccc([N+](=O)[O-])c1` showed a z-score of -0.37.

The compound `CC1CN(S(=O)(=O)c2cccc(C(=O)NCCCn3ccnc3)c2)CC(C)O1` (centres undefined) registered a z-score of 0.0312.

`Fc1ccccc1OCCCCn1cncn1` returned a z-score of 0.576.

`CCOC(=O)c1csc(NC(=O)Nc2cccc(OC)c2)n1`: the z-score was 0.576.

For the compound `CC(C)(C)C(=O)O/N=C1/C(=O)N(c2ccccc2)c2ccccc21`, the z-score is -0.251.

`CC1Cc2nc(SCC(=O)Nc3nccs3)n(Cc3ccccc3)c(=O)c2S1` (centres undefined) gave a z-score of 0.762.

In the case of `C=CCn1c(C)cc(C)c(C#N)c1=O`, the z-score is 0.181.

`COc1ccc(OC)c(S(=O)(=O)N2CCCC(C)C2)c1` (centres undefined) showed a z-score of 0.133.

In turn, `Cc1cc(NC(=O)CSc2nnc(C)c(=O)[nH]2)no1` showed a z-score of -0.167.

`CCn1c(SCC(N)=O)nc2c1c(=O)n(C)c(=O)n2C` showed a z-score of -0.15.

`CC(=O)c1ccc(N2CCN(c3ccc(S(=O)(=O)N4CCN(C)CC4)cn3)CC2)cc1` showed a z-score of 0.275.

`Cc1cc(NC(=O)C2CC2)ncc1NC(=O)C12CC3CC(CC(C3)C1)C2` yielded a z-score of -0.0511.

In turn, `COc1ccc(-c2c(C#N)c(N)nc3c2CCc2ccccc2-3)cc1OC` yielded a z-score of -0.362.

On to `CCOc1ccc(-c2nnn(CC(=O)NCc3ccco3)n2)cc1OCC`, for which the z-score worked out at 0.241.

With `CCOC(=O)c1ccc2[nH]c(C)c(CN3CCN(C)CC3)c(=O)c2c1`, the z-score was -0.371.

`Cc1nc2sc(C(c3cccs3)N3CC(C)CC(C)C3)c(O)n2n1` (centres undefined) gave a z-score of -0.461.

In turn, `COC(=O)c1cc2c(=O)n3ccccc3nc2n(C(C)C)c1=N` returned a z-score of 0.239.

`CCn1ccc(C(=O)Nc2ccc(Cl)cn2)n1` gave a z-score of 0.0101.

Consider `CN1C(=O)NC(NC(=O)c2ccncc2)(C(F)(F)F)C1=O` (centres undefined), for which the z-score is -0.0497.

`CCOc1cc(C(=S)N2CCCCC2)ccc1OS(=O)(=O)c1ccc(Cl)cc1` had a z-score of -0.121.

Compound `CC1=C(C(=O)Nc2cccc(F)c2)C(c2ccsc2)C2=C(CC(C)(C)CC2=O)N1` (centres undefined) registered a z-score of 0.0448.

As for `O=C(Cc1ccccc1Cl)NCCCn1ccnc1`, the z-score stood at 0.286.

Regarding `Cc1ccccc1-n1c(SCC(N)=O)nc2sc(-c3ccccc3)cc2c1=O`, the z-score was determined as 0.617.

Take `CCOc1ccc(N(C(=O)c2cnsn2)C(C(=O)NC2CCCCC2)c2ccncc2)cc1` (centres undefined): the z-score is -0.064.

The compound `CC1C(=O)CCC1(C(=O)O)c1ccccc1` (centres undefined) came in with a z-score of 0.225.

Compound `N#Cc1c(NC(=O)Cn2c(=O)oc3ccccc32)oc(-c2ccccc2)c1-c1ccccc1` returned a z-score of -0.679.

In turn, `COc1cc(CN2C(=S)NC(C)(C)CC2(C)O)cc(OC)c1` (centres undefined) had a z-score of -0.155.

In turn, `O=C(CN1CCN(S(=O)(=O)c2ccccc2)CC1)Nc1cccc(C(F)(F)F)c1` showed a z-score of -0.142.

In turn, `O=c1oc2ccccc2cc1-c1cn2cccnc2n1` yielded a z-score of 0.341.

`COCCNC(=S)N1CCOCC1`: the z-score is -0.306.

The compound `Cc1nc(N2CCOCC2)nc(N2CCN(c3ccccc3)CC2)c1[N+](=O)[O-]` gave a z-score of -0.205.

`O=C1C2CC=CCC2C(=O)N1c1ccc(NCCc2ccc(Cl)cc2)c([N+](=O)[O-])c1` (centres undefined) displayed a z-score of -0.122.

Turning to `CC(=C/c1ccccc1)/C=N/NC(=O)c1cnccn1`, the z-score was -0.176.

Take `Cc1c(OCC(F)(F)F)ccnc1CSc1nc2ccccc2[nH]1`: the z-score was -0.223.

For the compound `CCOC(=O)c1c(C)n(OCc2ccccc2)c2ccc3nonc3c12`, the z-score was -0.0507.

With `CCOC(=O)c1c(C)nc2sc3c(=O)n(-c4ccc(C(C)=O)cc4)nnc3c2c1-c1ccc(OC)cc1`, the z-score was -0.306.

With `Oc1ccc2ccccc2c1/C=N/Nc1nnc(-c2ncc[nH]2)c2ccccc12`, the z-score was -0.336.

`CCCCCOC(=O)Cc1c(C)nc(-c2ccccc2)[nH]c1=O` yielded a z-score of -1.01.

`CCc1ccccc1NC(=O)c1ccc(NCCc2ccccc2)c([N+](=O)[O-])c1` registered a z-score of -1.

Compound `Cc1cc(C)nc(SCc2nnc(SCC(=O)Nc3c(C)cccc3C)o2)n1` yielded a z-score of -0.101.

Turning to `CN1CCN(NC(=S)NC2CCCCC2)CC1`, the z-score is -0.11.

`CCOC(=O)c1ccccc1NS(=O)(=O)c1ccc(C)cc1` came in with a z-score of 0.251.

Turning to `CC(OC(=O)CCc1nc2ccccc2[nH]c1=O)C(=O)c1ccccc1` (centres undefined), the z-score is -0.532.

Compound `COC(=O)c1ccc(C(=O)OC)c(NC(=O)CN(C)Cc2cccc(Cl)c2Cl)c1` displayed a z-score of -0.099.

`CCn1c(SCC(=O)N2CCN(c3ccc(Cl)cc3)CC2)nc2ccccc2c1=O` returned a z-score of -0.224.

`COc1ccc(C(=O)NCC(c2ccc(F)cc2)N2CCOCC2)cc1S(=O)(=O)N1CCCC1` (centres undefined) yielded a z-score of -0.0294.

In turn, `CCn1cc([N+](=O)[O-])c(C(=O)Nc2nc(-c3ccc(C)cc3)c(C)s2)n1` returned a z-score of -0.546.

Compound `NC(=O)CSc1nnc(-c2ccncc2)n1-c1ccc(Cl)cc1` came in with a z-score of -0.00762.

For the compound `O=C(NN1C(=O)C2C3C=CC(C4CC34)C2C1=O)c1ccc(Cl)c(Cl)c1` (centres undefined), the z-score is -0.0159.

As for `O=C(CN1CCc2ccccc2C1)NCc1ccco1`, the z-score is 0.133.

`COc1ccc(O)c(C(=O)/C=C/c2cc3ccccc3o2)c1` registered a z-score of -0.139.

`COCCCNC(=O)Cn1cc(/C=C(\C#N)C(=O)N2CCN(c3ccccc3)CC2)c2ccccc21`: the z-score is 0.0645.

Regarding `Cc1cccc(NC(=O)c2cnc3sccn3c2=O)c1C`, the z-score stood at 0.631.

`Nc1ccc2nc(-c3cc(Cl)c(N)c(Cl)c3)[nH]c2c1` came in with a z-score of -0.984.

In the case of `CCCCOc1ccc(C(=O)NCc2ccncc2)cc1`, the z-score is -0.118.

Turning to `CCOC(=O)N1CCN(C(=O)c2ccc(CS(=O)(=O)c3ccccc3OC)o2)CC1`, the z-score was -0.139.

Compound `NS(=O)(=O)c1ccc(CNC(=O)CCC2CCCCC2)cc1` showed a z-score of 0.528.

In turn, `COc1ccc(NC(=O)C(=O)NCCO)cc1Cl` displayed a z-score of -0.116.

Compound `O=C(CSc1nnnn1Cc1ccccc1)N1CCN(c2ccccc2)CC1` had a z-score of -0.22.

In turn, `O=c1[nH]c(CN2CCN(c3ccc([N+](=O)[O-])cc3)CC2)nc2ccsc12` showed a z-score of 0.066.

With `COCCn1nnnc1C(c1cc2ccc(C)cc2[nH]c1=O)N(Cc1ccco1)Cc1cccs1` (centres undefined), the z-score was -0.191.

With `CCOC(=O)c1c(C)nc2sc(C(N)=O)c(N)c2c1-c1ccccc1`, the z-score is -1.25.

The compound `CCSc1nc2[nH]ncc2c(=O)[nH]1` gave a z-score of -0.145.

As for `Cc1nnc(SCCn2c(N(C)Cc3ccccc3)nc3c2c(=O)n(C)c(=O)n3C)s1`, the z-score is -0.304.

In turn, `CCOC(=O)Cn1cnc2c(C#N)c3n(c2c1=O)CCCCC3` returned a z-score of 0.0642.

For `CCCCNC(=O)c1onc(CSc2ccc(C(C)C)cc2)c1C(=O)O`, the z-score is -0.347.

`COC(=O)N1CCN(c2ccc(OC)cc2)CC1` had a z-score of -0.134.

The compound `COc1ccccc1CN1C(=O)CCC1(C)C(=O)NCc1cccnc1` (centres undefined) showed a z-score of 0.855.

Compound `O=C(c1cc2nc(-c3ccco3)cc(C(F)(F)F)n2n1)N1CCN(c2ccccn2)CC1` gave a z-score of -0.996.

Regarding `CN(c1ccc(C(=O)NCc2ccco2)cc1)S(C)(=O)=O`, the z-score was -0.288.

For the compound `O=C(CSc1ccc2nnc(-c3ccccn3)n2n1)Nc1ccc2c(c1)OCCO2`, the z-score is -0.598.

Consider `Cc1cc(-n2nnc3ccccc32)nc2ccccc12`, for which the z-score came out at 0.00551.

As to `COc1cc(C2C(C#N)=C(N)Oc3cc(N(C)C)ccc32)cc2c1OCO2` (centres undefined), the z-score was -0.326.

The compound `CC(C)NS(=O)(=O)c1ccc(CCC(=O)NCc2ccc3c(c2)OCO3)cc1` had a z-score of 0.0548.

Compound `O=C(COC(=O)c1cccc([N+](=O)[O-])c1)NCc1ccc2c(c1)OCO2` showed a z-score of -0.0402.

As to `Cc1c(Cl)c(C(=O)Nc2nc3ccccc3n2CCN2CCCCC2)nn1C`, the z-score was -0.0503.

Regarding `COC(=O)C(C)Sc1nc2c(c(=O)[nH]c(=O)n2C)n1CCC(C)C` (centres undefined), the z-score is -1.33.

For `CN1C=C(C(F)(F)F)C=C/C1=C(\C#N)c1nnc2n1CCCCC2`, the z-score is -1.27.

Turning to `CCC(C)n1ncn(-c2ccc(N3CCN(c4ccc(OC)cc4)CC3)cc2)c1=O` (centres undefined), the z-score is -0.724.

For the compound `CN(C)CCNC(CC(=O)Nc1ccc(Cl)c(Cl)c1)C(=O)O` (centres undefined), the z-score worked out at 0.422.

`COc1ccc(Cl)cc1NC(=O)CN(C)C(C)C(=O)NCC1CCCCC1` (centres undefined) yielded a z-score of -0.369.

As for `CCC(=O)Nc1ccccc1C(=O)C(=O)Nc1ccccc1`, the z-score is -0.178.

`CC(=O)c1nc(N2C(=O)CC(Cc3ccccc3)C2=O)sc1C` (centres undefined) came in with a z-score of -0.333.

The compound `C(=N\Nc1nc2ccccc2s1)/c1ccco1` gave a z-score of 0.0919.

For `Cc1ccc(-c2nc3ccsc3c(=O)o2)cc1`, the z-score is -1.54.

`CCOc1ccc(C(=O)NC2CCN(C(=S)NCc3ccco3)CC2)cc1` yielded a z-score of -0.0939.

`Cc1nn(Cc2c(Cl)cccc2Cl)c(C)c1NC(=O)CCCn1nc(C)c([N+](=O)[O-])c1C`: the z-score is -0.218.

As to `CC(=O)c1ccc(NC(=O)COC(=O)c2c3c(nc4ccccc24)/C(=C\c2cccs2)CCC3)cc1`, the z-score turned out to be 0.0242.

`C/C(CC(=O)Nc1cccc2c1CCCC2)=N\NC(=O)c1cccc2ccccc12` yielded a z-score of -0.483.

`CC1CCC2C(=O)N(c3ccc(C(=O)NCc4ccccc4)cc3)C(=O)C2C1` (centres undefined) had a z-score of -0.51.

With `CC(C)C(C)NC(=O)COc1ncnc2ccccc12` (centres undefined), the z-score was -0.0137.

In turn, `COc1ccc(C2CC(c3ccccc3)n3nnnc3N2)cc1` (centres undefined) showed a z-score of 0.842.

In turn, `CC(C)C(=O)Nc1ccc(C(=O)N2CCCCCC2)cc1` displayed a z-score of 2.15.

`O=C(O)CNC(=S)N(Cc1ccco1)Cc1ccccc1Cl` gave a z-score of -0.277.

In turn, `CNc1nc2cc([N+](=O)[O-])c([N+](=O)[O-])cc2nc1NC` yielded a z-score of 0.288.

For `O=C1C2CC=CCC2C(=O)N1Cc1ccccc1` (centres undefined), the z-score worked out at 0.693.

`Cc1nc(NC2=NCN(CCN3CCOCC3)CN2)nc2c(C)cccc12` came in with a z-score of -0.131.

Take `CC(=O)OC1=Cc2c(ccc3ccc(=O)oc23)OC1(C)C`: the z-score is -0.074.

For `CCC(C)[C@@H](NC(=O)OC(C)(C)C)c1nnc(S(=O)(=O)Cc2cccc(C)c2)o1` (some centres undefined), the z-score is -1.26.

The compound `O=C(COC(=O)/C=C/c1ccc(OC(F)F)cc1)Nc1ccc(S(=O)(=O)N2CCCC2)cc1` showed a z-score of -0.444.

On to `CCC(=O)NC(=S)Nc1cccc(Cl)c1N1CCCCC1`, for which the z-score came out at 0.315.
